Residue numbers refer to the chain shown, from its start. Numbers in names are those of the source. These are yes or no findings as the source states them, for the method shown. For part of these data: Binding seen in cells or lysates may run through a third protein. Some results given as binding are weak or reduced against the parent protein; the word gives no strength. For part of these data: Where a sequence is shown, tags or fusion partners need not be part of it. Values belong to the molecule of their own block, whether it stands above or below them.
Columns and labels:
[1] = biological target: T1, CPSF160 (subunit of the purified mPSF) (human) (UniProt Q10570); assay: cryo-EM structure; same reconstruction as a7: contacts between the subunits of mPSF, which were coexpressed in HEK293T and purified together
T1 sequence: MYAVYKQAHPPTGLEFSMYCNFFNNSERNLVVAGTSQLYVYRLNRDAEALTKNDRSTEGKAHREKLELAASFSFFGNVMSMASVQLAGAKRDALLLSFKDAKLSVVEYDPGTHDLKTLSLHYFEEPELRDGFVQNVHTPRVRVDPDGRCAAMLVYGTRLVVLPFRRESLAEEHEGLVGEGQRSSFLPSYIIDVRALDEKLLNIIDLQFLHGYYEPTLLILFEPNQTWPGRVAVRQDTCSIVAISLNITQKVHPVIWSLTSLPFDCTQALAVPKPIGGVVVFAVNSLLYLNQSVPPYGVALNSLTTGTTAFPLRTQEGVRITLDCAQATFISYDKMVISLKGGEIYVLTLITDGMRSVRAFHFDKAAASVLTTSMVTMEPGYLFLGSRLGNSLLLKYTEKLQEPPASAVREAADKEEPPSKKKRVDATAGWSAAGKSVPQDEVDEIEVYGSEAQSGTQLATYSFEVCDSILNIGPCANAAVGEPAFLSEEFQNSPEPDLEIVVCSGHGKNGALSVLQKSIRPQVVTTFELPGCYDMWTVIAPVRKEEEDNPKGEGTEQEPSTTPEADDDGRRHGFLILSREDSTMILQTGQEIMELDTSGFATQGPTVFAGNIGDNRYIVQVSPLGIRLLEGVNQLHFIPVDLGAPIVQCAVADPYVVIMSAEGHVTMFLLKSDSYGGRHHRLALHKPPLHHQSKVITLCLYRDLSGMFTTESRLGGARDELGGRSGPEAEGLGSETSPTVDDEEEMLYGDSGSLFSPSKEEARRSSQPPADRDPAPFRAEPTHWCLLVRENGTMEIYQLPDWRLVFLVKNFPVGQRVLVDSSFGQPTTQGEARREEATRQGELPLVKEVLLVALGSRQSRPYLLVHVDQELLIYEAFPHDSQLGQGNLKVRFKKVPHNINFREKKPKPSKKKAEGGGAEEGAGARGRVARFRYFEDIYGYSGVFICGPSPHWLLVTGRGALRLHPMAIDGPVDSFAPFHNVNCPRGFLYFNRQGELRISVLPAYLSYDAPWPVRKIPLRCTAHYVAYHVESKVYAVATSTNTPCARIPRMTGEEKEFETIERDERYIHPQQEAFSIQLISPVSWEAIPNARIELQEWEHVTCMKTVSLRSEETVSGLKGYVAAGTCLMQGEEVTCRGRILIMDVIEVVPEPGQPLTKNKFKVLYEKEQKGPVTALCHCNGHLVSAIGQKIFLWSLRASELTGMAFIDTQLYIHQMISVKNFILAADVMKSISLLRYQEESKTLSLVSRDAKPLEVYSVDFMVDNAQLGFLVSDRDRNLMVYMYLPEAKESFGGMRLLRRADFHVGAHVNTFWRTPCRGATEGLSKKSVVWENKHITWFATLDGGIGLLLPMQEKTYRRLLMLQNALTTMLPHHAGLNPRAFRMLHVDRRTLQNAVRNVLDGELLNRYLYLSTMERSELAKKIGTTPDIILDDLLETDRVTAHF

The chains behind the UniProt entries cited, without tags or fusion partners. Where a name states a change or a piece, a line headed by the entry shows the natural chain unless it says otherwise. A line that says so, or that is headed by a name, gives the form on record, which may keep a tag or linker.
TwinStrep-3C-CPSF30_isoform 2 (subunit of the purified mPSF) (O95639-2, form named): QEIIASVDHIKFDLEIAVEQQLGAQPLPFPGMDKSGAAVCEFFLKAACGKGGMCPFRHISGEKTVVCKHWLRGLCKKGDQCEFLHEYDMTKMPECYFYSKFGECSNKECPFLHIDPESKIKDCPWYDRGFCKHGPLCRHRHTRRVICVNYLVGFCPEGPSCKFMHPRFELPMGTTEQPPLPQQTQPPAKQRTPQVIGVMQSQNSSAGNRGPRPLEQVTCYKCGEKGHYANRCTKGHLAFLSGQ

[2] = biological target: T2, WDR33 residues 1–413 (subunit of the purified mPSF) (human) (UniProt Q9C0J8); assay: as above
T2 sequence: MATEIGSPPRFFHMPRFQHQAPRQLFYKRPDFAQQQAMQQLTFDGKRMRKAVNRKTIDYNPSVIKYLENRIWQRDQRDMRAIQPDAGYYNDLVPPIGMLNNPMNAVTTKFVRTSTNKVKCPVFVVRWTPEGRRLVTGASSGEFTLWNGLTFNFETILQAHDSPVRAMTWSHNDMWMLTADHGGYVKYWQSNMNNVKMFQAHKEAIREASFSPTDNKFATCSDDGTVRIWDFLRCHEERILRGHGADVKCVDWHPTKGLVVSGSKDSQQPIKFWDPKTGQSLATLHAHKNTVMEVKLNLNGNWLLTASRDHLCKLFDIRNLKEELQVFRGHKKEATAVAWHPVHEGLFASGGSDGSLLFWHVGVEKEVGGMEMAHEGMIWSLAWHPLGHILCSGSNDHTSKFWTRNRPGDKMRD

[3] = biological target: PAPOA structured core (His8-3C-PAPOA residues 1–513-FLAG), wild type (human) (UniProt P51003); assay: pull-down; FLAG pull-down on α-FLAG M2 Protein G Dynabeads; FLAG-tagged PAPOA core 2.5 µM as bait, FIP1 25 µM (10× excess); 20 mM HEPES-NaOH pH 7.5, 150 mM NaCl, 5 mM MgCl2, 0.01% NP-40 substitute, 4°C; Coomassie-stained SDS-PAGE; both purified
[4] = biological target: T3, PAPOA structured core (His8-3C-PAPOA residues 1–513-FLAG) H487E K489E (human) (UniProt P51003); assay: as above
T3 sequence: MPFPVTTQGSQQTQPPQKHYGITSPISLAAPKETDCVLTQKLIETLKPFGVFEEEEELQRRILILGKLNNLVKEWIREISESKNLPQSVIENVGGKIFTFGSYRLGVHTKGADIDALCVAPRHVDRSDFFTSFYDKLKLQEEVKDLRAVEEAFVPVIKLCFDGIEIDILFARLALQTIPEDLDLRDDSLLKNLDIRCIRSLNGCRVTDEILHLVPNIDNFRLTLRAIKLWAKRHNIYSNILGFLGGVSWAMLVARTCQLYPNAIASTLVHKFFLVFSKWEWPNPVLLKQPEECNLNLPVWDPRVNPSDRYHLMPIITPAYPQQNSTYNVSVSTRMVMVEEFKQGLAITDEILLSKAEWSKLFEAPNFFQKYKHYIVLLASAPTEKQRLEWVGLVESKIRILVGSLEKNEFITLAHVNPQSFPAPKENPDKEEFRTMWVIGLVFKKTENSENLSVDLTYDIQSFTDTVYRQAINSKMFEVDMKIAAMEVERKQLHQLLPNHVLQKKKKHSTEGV

[5] = biological target: mammalian polyadenylation specificity factor (mPSF: TwinStrep-3C-CPSF30_isoform 2, CPSF160, WDR33 residues 1–413, FIP1 residues 1–393) (human) (UniProt O95639+Q10570+Q9C0J8+Q6UN15); assay: cryo-EM structure; 1 µM purified mPSF mixed with 500× excess of synthesized PAPOAC peptide in EM buffer (50 mM HEPES-KOH pH 7.9, 150 mM KOAc, 1 mM Mg(OAc)2, 1 mM TCEP), 15 min at 4°C; global resolution 2.79 Å; both purified
[6] = biological target: PAPOA structured core (His8-3C-PAPOA residues 1–513-FLAG), wild type (human) (UniProt P51003); assay: pull-down; data not shown: competition with FIP1 prebound to the PAPOA core and PAPOAC added in large excess; both purified
[7] = biological target: full-length poly(A) polymerase (PAPOA) expressed in HEK cells (human) (UniProt P51003); assay: pull-down; HEK cell lysates, PAPOA and FIP1 cotransfected (plasmid ratio 1:5); MagStrep type3 XT beads, KingFisher, room temperature; 20 mM HEPES-NaOH pH 7.5, 150 mM NaCl, 5 mM MgCl2, 0.1% NP-40 substitute

B1: minimal FIP1 construct (His6-MBP-3C-FIP1 residues 80–113) D94R V98R (peptide, UniProt Q6UN15 80-113)
chain: ETEDDSDSDSDDDERDVHRTIGDIKTGAPQYGSY
binding [3]: no binding (tested: 25 µM FIP1 with 2.5 µM PAPOA)

B2: minimal FIP1 construct (His6-MBP-3C-FIP1 residues 80–113), wild type (peptide, UniProt Q6UN15 80-113, looked up)
chain: B1 chain with R15D, R19V
notes: A 3C site follows MBP; no cleavage step is described in the purification; also called minimal FIP1 peptide; source: E. coli BL21 STAR (DE3) pRARE, purified (Amylose resin, Superdex 200)
binding [4]: no binding (tested: 25 µM FIP1 with 2.5 µM PAPOA)

B4: FIP1 N terminus (His6-MBP-3C-FIP1 residues 1–113), wild type (domain or fragment, UniProt Q6UN15 1-113)
chain: MSAGEVERLVSELSGGTGGDEEEEWLYGGPWDVHVHSDLAKDLDENEVERPEEENASANPPSGIEDETAENGVPKPKVTETEDDSDSDSDDDEDDVHVTIGDIKTGAPQYGSY
binding [6]: binds
binding [3]: binds

B6: longer FIP1 construct (residues 1–393) with the FIP1-charged mutations D94R V98R, expressed in HEK cells (domain or fragment, UniProt Q6UN15 1-393)
chain: MSAGEVERLVSELSGGTGGDEEEEWLYGGPWDVHVHSDLAKDLDENEVERPEEENASANPPSGIEDETAENGVPKPKVTETEDDSDSDSDDDERDVHRTIGDIKTGAPQYGSYGTAPVNLNIKTGGRVYGTTGTKVKGVDLDAPGSINGVPLLEVDLDSFEDKPWRKPGADLSDYFNYGFNEDTWKAYCEKQKRIRMGLEVIPVTSTTNKITAEDCTMEVTPGAEIQDGRFNLFKVQQGRTGNSEKETALPSTKAEFTSPPSLFKTGLPPSRNSTSSQSQTSTASRKANSSVGKWQDRYGRAESPDLRRLPGAIDVIGQTITISRVEGRRRANENSNIQVLSERSATEVDNNFSKPPPFFPPGAPPTHLPPPPFLPPPPTVSTAPPLIPPPGF
binding [7]: no binding

Results, then the molecule that gave them:

binding [1]: binds
binding [2]: binds
Molecule: TwinStrep-3C-CPSF30_isoform 2 (subunit of the purified mPSF) (from UniProt O95639-2 2-244)

binding [5]: binds weakly
B3: minimal PAPOAC construct (His6-MBP-3C-PAPOA residues 720–745), wild type (peptide)
chain: DLSDIPALPANPIPVIKNSIKLRLNR
notes: human poly(A) polymerase alpha (PAPOA), C-terminal motif, residues 720-745; A 3C site follows MBP; no cleavage step is described in the purification; also called PAPOA C terminus; PAPOAC peptide; source: E. coli BL21 STAR (DE3) pRARE, purified (Amylose resin, Superdex 200)

binding [7]: binds
B5: longer FIP1 construct (residues 1–393), wild type, expressed in HEK cells (domain or fragment, UniProt Q6UN15 1-393)
chain: B6 chain with R94D, R98V
